Test results as given in PubChem BioAssay AID1466 (National Center for Advancing Translational Sciences (NCATS), 2008).
Screen size: about 200,000 compounds; about 10 (0.005%) were called active. This list was built around the results that the source calls inconclusive (neither active nor inactive); the mix of calls is not that of the screen. Calls come from the whole dose curve; as a rule, active = well fitted inhibition curve with a large enough effect; inconclusive = small, poorly fitted or top-dose-only effect, or effect the other way, or another doubt; inactive = no such curve, though single readings can be large or run the other way. A potency beside an inconclusive call is a rough fit, not a confirmed value.

biological target: Lysosomal alpha-glucosidase (Homo sapiens) (UniProt P10253); assay: qHTS Assay for Inhibitors of Human alpha-Glucosidase as a Potential Chaperone Treatment of Pompe Disease; settings: purified human GAA, 4-MU-alpha-glucoside fluorescence; activity change, negative = inhibition: at 76.9 µM (top of the series) unless noted;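 for activity change, negative = inhibition: plate controls were uninhibited enzyme wells for no effect and no-enzyme background for full effect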
How it was run: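 AC50 values come from Hill fits of compound titrations (up to 77 uM) against 4 nM human enzyme. Substrate 4-methylumbelliferyl-alpha-D-pyranoside at 400 uM, pH 5.0 citrate buffer, 20 min room temperature; fluorescence Ex 365/Em 440 after alkaline stop.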
Potency is the fitted concentration of half-maximal effect; tags give direction and shape of the fitted curve.

Activity change, negative = inhibition, inconclusive:
CCOC(=O)N1CCN(Cc2ccc(O)c3ncccc23)CC1 4.31% [activator]
Cc1cccc(-c2noc(CN(C(=O)c3ccc(Br)o3)C(C)C)n2)c1 -15% [inhibitor]
O=C1CCCC2=C1C(c1cccs1)n1nc(SCc3ccccc3F)nc1N2 (stereo not given) 67.2% [activator]
NC(=O)C1(N2CCCCC2)CCN(c2nc(-c3ccc(Br)cc3)cs2)CC1 -18.9% [inhibitor]
CCn1c(SCC(=O)Nc2cc(C)on2)nnc1-c1ccc(OC)cc1 16% [activator]
C/C(=N\NC(=O)c1ccccn1)c1ccc(C(=O)O)s1 8.48% [activator]
Cc1[nH]c2ccccc2c1C(=O)CN1CCSCC1 15.1% [activator]
CC(C)c1ccccc1NC(=S)NC1CCN(Cc2ccccc2)CC1 -16.2% [inhibitor]
CCC(C)NC(=O)c1ccc(C2SCC(=O)N2Cc2ccccc2)cc1 (stereo not given) 19% [activator]
N#Cc1ccc(/C=C/C(=O)c2ccc3c(c2)OCO3)cc1 6.32% [activator]
O=C(Nc1nc(-c2ccccc2)cs1)C1CCCN(S(=O)(=O)c2ccccc2)C1 (stereo not given) -15.1% [inhibitor]
Nc1cccc2c1C(=O)N(CC(=O)NC13CC4CC(CC(C4)C1)C3)C2=O 19.1% [activator]

Activity change, negative = inhibition, inactive:
O=C(NNc1nc2c(F)cccc2s1)C1=COCCO1 1.84%
COc1ccc(N2C(=O)CC(Nc3ccc(C)cc3)C2=O)cc1 (stereo not given) 1.24%
O=c1nc2s/c(=C\c3ccc(-c4ccccc4[N+](=O)[O-])o3)c(=O)n2nc1-c1ccccc1 -4.48%
CCN(CC)c1ccc(/C=N/Nc2ccccc2)c(O)c1 -10.3%
Cc1c(N=Nc2ccc(O)cc2)c(=O)n(-c2ccccc2)n1C 3.66%
Cc1cccc(NC(=S)N(C)C)c1C -9.46% [at 15.4 µM]

Potency, inconclusive:
CC1=NN(c2ccc(C(=O)O)c(N)c2)C(=O)C1 35.5 µM [inhibitor, partial curve]
Cc1cccc2cc(C3CC(c4cccs4)=NN3C(=O)CCC(=O)O)c(Cl)nc12 (stereo not given) 50.1 µM [inhibitor, single point]
Cc1cc(=O)oc2cc(Oc3ncccc3[N+](=O)[O-])ccc12 50.1 µM [activator, single point]
O=c1c(-c2nnc(SCc3ccc(Cl)cc3)o2)cccn1Cc1ccccc1 39.8 µM [activator, partial curve]
CC(=O)Nc1cccc(Oc2ccc(-c3noc(C)n3)cc2)c1 39.8 µM [inhibitor, single point]
COc1ccc(N(C(=O)c2cccnc2)S(=O)(=O)c2ccccc2)cc1 5.62 µM [inhibitor, single point]
O=C(NCC1CCCO1)c1ccc(COc2ccccc2Br)cc1 (stereo not given) 1.78 µM [inhibitor, full curve, poor fit]
CCCC(=O)NC(=S)Nc1ccc(S(=O)(=O)Nc2ccc(OCC)cc2)cc1 12.6 µM [inhibitor, partial curve, poor fit]
Cn1c(=O)c2nc(Cl)c(-c3ccccc3)nc2n(C)c1=O 31.6 µM [activator, partial curve]
COc1ccc(-c2nn3c(-c4ccccc4)nnc3s2)cc1 50.1 µM [inhibitor, single point]
CC(=O)Oc1ccc2c(C)cc(=O)oc2c1C(=O)c1ccccc1 25.1 µM [activator, partial curve, poor fit]
O=C(Cc1ccccc1)NC(=S)Nc1ccc(N2CCCCC2)cc1 50.1 µM [inhibitor, single point]
Oc1c(C(c2ccco2)N2CCN(C(c3ccccc3)c3ccccc3)CC2)sc2ncnn12 (stereo not given) 12.6 µM [inhibitor, partial curve, poor fit]
O=C(Nc1ccccc1Cl)N1CCSc2ccccc21 56.2 µM [inhibitor, single point]
COc1cc(C(=O)Nc2nc(-c3ccc(C)cc3)cs2)ccc1OCC(=O)N1CCOCC1 39.8 µM [inhibitor, single point]
N#CC1=C(N)NC(SCc2ccc(F)cc2)=C(C#N)C12CCCCC2 56.2 µM [inhibitor, single point]
COc1ccc(CNc2ccc(Br)cc2)cc1 0.708 µM [inhibitor, full curve, poor fit]
C=CCN(c1ccccc1)S(=O)(=O)c1cccc(C(=O)Oc2ccc3c(C)cc(=O)oc3c2)c1 35.5 µM [activator, partial curve]
O=C(Nc1ccccc1N1CCCCC1)c1ccc(-c2cccc(Cl)c2)o1 6.31 µM [inhibitor, single point]
Cc1cccc(Oc2ccccc2N)c1 0.178 µM [inhibitor, full curve, poor fit]
CCCCn1nnnc1SCC(=O)Nc1ccc(F)cc1 56.2 µM [inhibitor, single point]
Cc1cc2oc(=O)cc(CN3CCN(S(=O)(=O)c4cccs4)CC3)c2cc1C 15.8 µM [inhibitor, partial curve]
CC1(C)Cc2c(ccc3ccccc23)/C(=C/C(=O)N2CCCCC2)N1 39.8 µM [inhibitor, single point]
O=C(CCC(=O)N1CCN(S(=O)(=O)c2ccccc2)CC1)c1cccs1 28.2 µM [inhibitor, partial curve]
COc1ccccc1S(=O)(=O)Cc1ccc(C(=O)NCc2cccnc2)o1 12.6 µM [inhibitor, partial curve, poor fit]
Cc1ccc(-n2c(SCn3nnc4ccccc4c3=O)nnc2-c2cccnc2)c(C)c1 1.78 µM [inhibitor, full curve, poor fit]
Cc1cc(=O)[nH]c(-c2ccccc2)n1 4.47 µM [inhibitor, partial curve, poor fit]
CCOc1ccc(S(=O)(=O)NCc2ccccc2OC)cc1 50.1 µM [inhibitor, single point]
COC(=O)c1c(O)cc(C(C)(C)C)n(-c2ccccc2)c1=O 11.2 µM [inhibitor, single point]
COc1cccc(C(=O)Nc2ccc(Oc3cccc(C(F)(F)F)c3)nc2)c1 15.8 µM [inhibitor, partial curve]
CCc1c(C(=O)N/N=C/c2cn[nH]c2-c2ccc(F)cc2)csc1C 35.5 µM [inhibitor, partial curve]
CCC(C)[C@H](NC(=O)N1CCCC1)C(=O)OC (stereo not given in full) 12.6 µM [inhibitor, single point]
C=CCn1c(Cc2cccc3ccccc23)n[nH]c1=S 6.31 µM [inhibitor, single point]
COc1cc2nc(N(C)CCCNC(=O)C3CCCO3)nc(N)c2cc1OC (stereo not given) 35.5 µM [activator, partial curve]
Cc1c(CCC(=O)O)c(=O)n2c([nH]c3ccccc32)c1C#N 35.5 µM [activator, partial curve]
CCOC(=O)N1CCN(c2cc(=O)n(Cc3ccc(F)cc3)c(=O)[nH]2)CC1 6.31 µM [inhibitor, single point]
O=C(c1cc(C(=O)N2CCOCC2)c2nc3ccccc3n2c1)c1ccccc1O 0.501 µM [inhibitor, full curve, poor fit]
O=[N+]([O-])c1cc(S(=O)(=O)N2CCOCC2)ccc1N1CCCC1 39.8 µM [inhibitor, single point]
CCOc1ccc2[nH]c(=O)c(C(c3nnnn3CC3CCCO3)N3CCc4ccccc4C3)cc2c1 (stereo not given) 50.1 µM [inhibitor, partial curve, poor fit]
O=C(Nc1ccc(N2CCN(c3ncccc3C(F)(F)F)CC2)nc1)c1cccs1 39.8 µM [inhibitor, single point]
CCOP(=O)(OCC)c1nc(/C=C/c2ccccc2)oc1NCc1ccccc1 35.5 µM [activator, partial curve]
CCNC(=O)c1ccc(NS(=O)(=O)c2ccccc2)cc1 5.62 µM [inhibitor, single point]
C/C(=N\NC(=O)c1ccc2c(c1)OCO2)c1ccc(C(=O)O)s1 56.2 µM [inhibitor, single point]
N#Cc1c(NC(=S)NC(=O)c2ccccc2)sc2c1CCC2 56.2 µM [inhibitor, single point]
COc1ccc(NC(=O)COc2nc(N(C)C)nc(N(C)C)n2)cc1 56.2 µM [inhibitor, single point]
CCC(C)[C@@H](C(=O)Nc1ccc(OC)c(OC)c1)N1Cc2ccccc2C1=O (stereo not given in full) 56.2 µM [inhibitor, single point]
COCCCn1c(C)nc2c(c1=O)c1nc3ccccc3nc1n2CCc1ccccc1 15.8 µM [activator, partial curve]
